According to article PMC9911399, “Two distinct binding modes provide the RNA-binding protein RbFox with extraordinary sequence specificity”:
Where a chain is given by its changes, count along the chain named. The list shows a part of the results.

T1: RBFOX1 RRM (Homo sapiens, UniProt Q9NWB1 109-208)
T1 sequence: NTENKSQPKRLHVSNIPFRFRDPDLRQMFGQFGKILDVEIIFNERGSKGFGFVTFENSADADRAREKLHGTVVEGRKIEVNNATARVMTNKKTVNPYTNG

B1: CAAGCCC (DNA:RNA)
RNA: GGGAGACCGGAAUUCAGAUUGUCCCAAGCCCUUAAAUCCCGUCGUAGCCACCA
DNA 1: CAATCTGAATTCCGGTCTCCC
DNA 2: TGGTGGCTACGACGGGATT
B2: CCGUGGU (DNA:RNA)
RNA: B1 RNA with A26C, A27G, G28U, C29G, C30G, C31U
DNA 1: CAATCTGAATTCCGGTCTCCC
DNA 2: TGGTGGCTACGACGGGATT
B3: GACGAUC (DNA:RNA)
RNA: B1 RNA with C25G, A27C, C29A, C30U
DNA 1: CAATCTGAATTCCGGTCTCCC
DNA 2: TGGTGGCTACGACGGGATT
B4: AUACUAU (DNA:RNA)
RNA: B1 RNA with C25A, A26U, G28C, C29U, C30A, C31U
DNA 1: CAATCTGAATTCCGGTCTCCC
DNA 2: TGGTGGCTACGACGGGATT
B5: AUUAUUG (DNA:RNA)
RNA: GGGAGACCGGAAUUCAGAUUGUCCAUUAUUGUUAAAUCCCGUCGUAGCCACCA
DNA 1: CAATCTGAATTCCGGTCTCCC
DNA 2: TGGTGGCTACGACGGGATT
B6: ACUCGGU (DNA:RNA)
RNA: B5 RNA with U26C, A28C, U29G, U30G, G31U
DNA 1: CAATCTGAATTCCGGTCTCCC
DNA 2: TGGTGGCTACGACGGGATT
B7: UCAUACA (DNA:RNA)
RNA: B1 RNA with C25U, A26C, G28U, C29A, C31A
DNA 1: CAATCTGAATTCCGGTCTCCC
DNA 2: TGGTGGCTACGACGGGATT
B8: AUUAUCU (DNA:RNA)
RNA: B5 RNA with U30C, G31U
DNA 1: CAATCTGAATTCCGGTCTCCC
DNA 2: TGGTGGCTACGACGGGATT
B9: AUUAGCG (DNA:RNA)
RNA: B5 RNA with U29G, U30C
DNA 1: CAATCTGAATTCCGGTCTCCC
DNA 2: TGGTGGCTACGACGGGATT
B10: AGAUAUA (DNA:RNA)
RNA: B5 RNA with U26G, U27A, A28U, U29A, G31A
DNA 1: CAATCTGAATTCCGGTCTCCC
DNA 2: TGGTGGCTACGACGGGATT
B11: CUAUCUC (DNA:RNA)
RNA: B1 RNA with A26U, G28U, C30U
DNA 1: CAATCTGAATTCCGGTCTCCC
DNA 2: TGGTGGCTACGACGGGATT
B12: GGAGCUU (DNA:RNA)
RNA: B1 RNA with C25G, A26G, C30U, C31U
DNA 1: CAATCTGAATTCCGGTCTCCC
DNA 2: TGGTGGCTACGACGGGATT
B13: UCACCAA (DNA:RNA)
RNA: B1 RNA with C25U, A26C, G28C, C30A, C31A
DNA 1: CAATCTGAATTCCGGTCTCCC
DNA 2: TGGTGGCTACGACGGGATT
B14: GAAAAAG (DNA:RNA)
RNA: B5 RNA with A25G, U26A, U27A, U29A, U30A
DNA 1: CAATCTGAATTCCGGTCTCCC
DNA 2: TGGTGGCTACGACGGGATT
B15: AUGAUGG (DNA:RNA)
RNA: B5 RNA with U27G, U30G
DNA 1: CAATCTGAATTCCGGTCTCCC
DNA 2: TGGTGGCTACGACGGGATT
B16: CCGCAUA (DNA:RNA)
RNA: B5 RNA with A25C, U26C, U27G, A28C, U29A, G31A
DNA 1: CAATCTGAATTCCGGTCTCCC
DNA 2: TGGTGGCTACGACGGGATT
B17: CACCGCA (DNA:RNA)
RNA: B1 RNA with A27C, G28C, C29G, C31A
DNA 1: CAATCTGAATTCCGGTCTCCC
DNA 2: TGGTGGCTACGACGGGATT
B18: UAAUGUA (DNA:RNA)
RNA: B1 RNA with C25U, G28U, C29G, C30U, C31A
DNA 1: CAATCTGAATTCCGGTCTCCC
DNA 2: TGGTGGCTACGACGGGATT
B19: GCAAUUA (DNA:RNA)
RNA: B5 RNA with A25G, U26C, U27A, G31A
DNA 1: CAATCTGAATTCCGGTCTCCC
DNA 2: TGGTGGCTACGACGGGATT
B20: CCGGUGU (DNA:RNA)
RNA: B1 RNA with A26C, A27G, C29U, C30G, C31U
DNA 1: CAATCTGAATTCCGGTCTCCC
DNA 2: TGGTGGCTACGACGGGATT
B21: UUAGACA (DNA:RNA)
RNA: B1 RNA with C25U, A26U, C29A, C31A
DNA 1: CAATCTGAATTCCGGTCTCCC
DNA 2: TGGTGGCTACGACGGGATT
B22: AUAGAGA (DNA:RNA)
RNA: B5 RNA with U27A, A28G, U29A, U30G, G31A
DNA 1: CAATCTGAATTCCGGTCTCCC
DNA 2: TGGTGGCTACGACGGGATT
B23: CCUGAAU (DNA:RNA)
RNA: B1 RNA with A26C, A27U, C29A, C30A, C31U
DNA 1: CAATCTGAATTCCGGTCTCCC
DNA 2: TGGTGGCTACGACGGGATT
B24: AAUGCUU (DNA:RNA)
RNA: B5 RNA with U26A, A28G, U29C, G31U
DNA 1: CAATCTGAATTCCGGTCTCCC
DNA 2: TGGTGGCTACGACGGGATT
B25: AAUAAUU (DNA:RNA)
RNA: B5 RNA with U26A, U29A, G31U
DNA 1: CAATCTGAATTCCGGTCTCCC
DNA 2: TGGTGGCTACGACGGGATT
B26: UUGCGAG (DNA:RNA)
RNA: B5 RNA with A25U, U27G, A28C, U29G, U30A
DNA 1: CAATCTGAATTCCGGTCTCCC
DNA 2: TGGTGGCTACGACGGGATT
B27: CCGGAUG (DNA:RNA)
RNA: B5 RNA with A25C, U26C, U27G, A28G, U29A
DNA 1: CAATCTGAATTCCGGTCTCCC
DNA 2: TGGTGGCTACGACGGGATT
B28: CCGCAUU (DNA:RNA)
RNA: B5 RNA with A25C, U26C, U27G, A28C, U29A, G31U
DNA 1: CAATCTGAATTCCGGTCTCCC
DNA 2: TGGTGGCTACGACGGGATT
B29: GCUCUCU (DNA:RNA)
RNA: B5 RNA with A25G, U26C, A28C, U30C, G31U
DNA 1: CAATCTGAATTCCGGTCTCCC
DNA 2: TGGTGGCTACGACGGGATT
B30: AGGACGA (DNA:RNA)
RNA: B5 RNA with U26G, U27G, U29C, U30G, G31A
DNA 1: CAATCTGAATTCCGGTCTCCC
DNA 2: TGGTGGCTACGACGGGATT
B31: GUGUUAG (DNA:RNA)
RNA: B5 RNA with A25G, U27G, A28U, U30A
DNA 1: CAATCTGAATTCCGGTCTCCC
DNA 2: TGGTGGCTACGACGGGATT

target: T1, RBFOX1 RRM; assay: EMSA; HiTS-Eq, 1 nM pool, 10 min; buffer printed only for the single-RNA assays: 10 mM Tris pH 7.5, 150 mM NaCl, 3.4 mM EDTA, 0.001% NP-40, 30 C; conditions: tags: His6 N-terminal (pET28a); label: 5' 32P
Method in brief: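 Relative association constants, normalised to the cognate motif, were derived by comparing read counts of each RNA species with those of the control reaction. The RNA sequenced was the free fraction, separated by 8% native PAGE after a 10 min equilibration in 50 µL of 1 nM 5′-radiolabelled RNA (7 randomized nucleotides) with increasing concentrations of purified wild-type or mutant RbFox RRM.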

Binder	binding signal
B1	0.00379 KA relative to UGCAUGU
B2	0.0142 KA relative to UGCAUGU
B3	0.0155 KA relative to UGCAUGU
B4	0.000717 KA relative to UGCAUGU
B5	0.00949 KA relative to UGCAUGU
B6	0.0113 KA relative to UGCAUGU
B7	0.00023 KA relative to UGCAUGU
B8	0.00435 KA relative to UGCAUGU
B9	0.00971 KA relative to UGCAUGU
B10	0.00218 KA relative to UGCAUGU
B11	0.0057 KA relative to UGCAUGU
B12	0.0232 KA relative to UGCAUGU
B13	0.00156 KA relative to UGCAUGU
B14	0.00328 KA relative to UGCAUGU
B15	0.0132 KA relative to UGCAUGU
B16	0.00403 KA relative to UGCAUGU

Binder	binding signal
B17	0.00871 KA relative to UGCAUGU
B18	0.0139 KA relative to UGCAUGU
B19	0.00326 KA relative to UGCAUGU
B20	0.0133 KA relative to UGCAUGU
B21	0.00332 KA relative to UGCAUGU
B22	0.00472 KA relative to UGCAUGU
B23	0.00741 KA relative to UGCAUGU
B24	0.00981 KA relative to UGCAUGU
B25	0.00136 KA relative to UGCAUGU
B26	0.0151 KA relative to UGCAUGU
B27	0.00955 KA relative to UGCAUGU
B28	0.0137 KA relative to UGCAUGU
B29	0.0104 KA relative to UGCAUGU
B30	0.0223 KA relative to UGCAUGU
B31	0.0132 KA relative to UGCAUGU
